Experimental data from PubChem BioAssay AID1745853 (National Center for Advancing Translational Sciences (NCATS), 2022).
The list shows a part of the results. Further columns of the screen follow, without active or inactive calls.

Experiments:
Experiment in all cases: Primary Screen for Target Class Profiling of Small Molecule Inhibitors of Methyltransferases
[1] = target: Glycine N-methyltransferase (Homo sapiens) (UniProt Q14749); conditions: purified enzyme, MTase-Glo SAH luminescence; measured here: GNMT inhibition; at 40 µM; stronger effect = lower value
Text: (§1) PI: Matthew D. Hall Ph.D. and Quinlin M. Hanson Ph.D.
(§2) National Center for Advancing Translational Sciences (NCATS)
(§3) National Institute of Health (NIH), Rockville, MD
(§4) Target class profiling (TCP) is a chemical biology approach amenable to investigating understudied biological targets. TCP is achieved by developing a generalizable assay platform and applying it to screen a curated set of compound libraries against representative members of a target class. Small molecule methyltransferases (SMMTase) are a subclass of methyltransferase that act on metabolites to modulate signaling pathways, metabolize xenobiotics, or balance the available methyl pool. We screened four curated libraries totaling 27,574 unique compounds against the SMMTases nicotinamide N-methyltransferase (NNMT), phenylethanolamine N-methyltransferase (PNMT), histamine N-methyltransferase (HNMT), glycine N-methyltransferase (GNMT), catechol O-methyltransferase (COMT), and guanidinoacetate N-methyltransferase (GAMT). The data generated by this TCP can be leveraged for informed tool molecule development. For example, in the associated publication we identified a chemotype of HNMT-selective inhibitors. Additionally, we identified a putative SMMTase-selective inhibitor with potential as a tool molecule for studying broader methyltransferase biology.
(§5) High-through put screening assays were developed at the National Center for Advancing Translational Science (NCATS) for the enzymes NNMT, PNMT, HNMT, GNMT, COMT, and GAMT. Enzymatic activity was measured as a function of SAM cofactor conversion using the MTase Glo kit (Promega) for all enzymes. All assays were performed in 1536-well format with substrates and SAM concentrations at KM values. Enzyme concentration and assay timing were optimized for 10-20% SAM conversion. Initial screening of 27,574 compounds was done as single-point assays using the highest compound concentration (40 uM). […] These compounds were replated in 11-point dose response and assayed against NNMT, PNMT, HNMT, GNMT, COMT, GAMT, and a counter-assay. The IC50 and efficacy (maximal response) values were determined for each dose-response curve. These values are also accounted for in the area under the curve (AUC) values.
(§6) PROTOCOL TABLE (as described by Inglese J, Shamu CE and Guy RK. 2007)
(§7) SEQUENCE No. (e.g., 1, 2, 3, etc.); […] (e.g., Cells, Incubation, Reagent, etc.); VALUE; DESCRIPTION.
(§8) 1; Reagent; 2 uL; SMMTase Enzyme (2x) in reaction buffer, columns 1- 48.
(§9) 2; Reagent; 1 uL; SAM (4x) in reaction buffer, columns 1-48.
(§10) 3; Controls; 23 nL; DMSO in column 4; sinefungin in DMSO (0 uM - 40 uM) in 7-point 1:2 dilution series (n = 2) in column 2.
(§11) 4; Compounds; 23 nL; Columns 5-48.
(§12) 5; Reagent; 1 uL; Substrate (4x) in reaction buffer, columns 2-48.
(§13) 6; Time; 20-30 min; Incubation.
(§14) 7; Reagent; 1 uL; MTase-Glo reagent (5X), columns 1-48.
(§15) 8; Time; 30 min; Incubation.
(§16) 9; Reagent; 5 uL; MTase-Glo Detection reagent, columns 1-48.
(§17) 10; Time; 30 min; Incubation, luminescence evolution.
(§18) 11; Detection; Luminescence; ViewLux uHTS Microplate Imager (PerkinElmer).
(§19) NOTES (numbers refer to Sequence numbers above)
(§20) 1, 2, 5. White Medium Binding Greiner 1536-well plates (Cat #789175-F, Greiner Bio-One, Monroe, NC); Reaction buffer: 50 mM Tris, pH 8.0, 3 mM MgCl2, 1 mM EDTA, 50 mM NaCl, 1 mM DTT, and 0.1 mg/mL BSA. Evaporation was prevented by covering assay plates with metal lids containing holes to allow gas diffusion.
(§21) 1. Six SMMTase were profiled: HNMT, GNMT, PNMT, COMT, NNMT, GAMT
(§22) 5. The corresponding substrate was used for each enzyme: HNMT - 5.3 uM Histamine; GNMT - >500 uM Glycine; PNMT - 16.2 uM Norephinephrine; COMT - 13.7 uM Norephinephrine; NNMT - 3.8 uM Nicotinamide; GAMT - 2.5 uM Guanidinoacetate.6, 8, 10. Room temperature
(§23) 6. Final reaction conditions: 10 nM COMT, 5 uM SAM, 15 uM norepinephrine, 50 mM Tris, pH 8.0, 3 mM MgCl2, 1 mM EDTA, 50 mM NaCl, 1 mM DTT, and 0.1 mg/mL BSA; refer to tables 2 and S1 for specific timing.
8. […]

[2] = target: Guanidinoacetate N-methyltransferase (Homo sapiens) (UniProt Q14353); conditions: purified enzyme, MTase-Glo SAH luminescence; measured here: GAMT inhibition; at 40 µM; stronger effect = lower value
Text: as §1, §2, §3, §4, §5, §6, §7, §8, §9, §10, §11, §12, §13, §14, §15, §16, §17, §18, §19, §20, §21, §22, §23
8. […]

[3] = target: Histamine N-methyltransferase (Homo sapiens) (UniProt P50135); conditions: purified enzyme, MTase-Glo SAH luminescence; measured here: HNMT inhibition; at 40 µM; stronger effect = lower value
Text: as §1, §2, §3, §4, §5, §6, §7, §8, §9, §10, §11, §12, §13, §14, §15, §16, §17, §18, §19, §20, §21, §22, §23
8. […]

[4] = target: Nicotinamide N-methyltransferase (Homo sapiens) (UniProt P40261); conditions: purified enzyme, MTase-Glo SAH luminescence; measured here: NNMT inhibition; at 40 µM; stronger effect = lower value
Text: as §1, §2, §3, §4, §5, §6, §7, §8, §9, §10, §11, §12, §13, §14, §15, §16, §17, §18, §19, §20, §21, §22, §23
8. […]

[5] = target: Phenylethanolamine N-methyltransferase (Homo sapiens) (UniProt P11086); conditions: purified enzyme, MTase-Glo SAH luminescence; measured here: PNMT inhibition; at 40 µM; stronger effect = lower value
Text: as §1, §2, §3, §4, §5, §6, §7, §8, §9, §10, §11, §12, §13, §14, §15, §16, §17, §18, §19, §20, §21, §22, §23
8. […]
% is set by controls: 0 for no effect and ±100 for the full control effect.

## CCCNC(=O)N1Cc2c(sc3c2CCCC3)-n2cccc2C1c1ccc(OCC)cc1 (stereo not given)
[1]
  activity change, negative = inhibition: 0.414%
[2]
  activity change, negative = inhibition: 0%
[3]
  activity change, negative = inhibition: 5.33%
[4]
  activity change, negative = inhibition: -7.2%
[5]
  activity change, negative = inhibition: 4.98%

## CN1CC(=O)N/C1=N/C(=O)Nc1cccc(Cl)c1
[1]
  activity change, negative = inhibition: -1.48%
[2]
  activity change, negative = inhibition: 2.39%
[3]
  activity change, negative = inhibition: 0.264%
[4]
  activity change, negative = inhibition: -10.1%
[5]
  activity change, negative = inhibition: -0.812%

## CNC(=O)c1cc(C2CC2)nc2c1c(C1CCCN([S+](=O)([O-])c3c(C)noc3C)C1)nn2C (stereo not given)
[1]
  activity change, negative = inhibition: -0.494%
[2]
  activity change, negative = inhibition: 0.859%
[3]
  activity change, negative = inhibition: 3.31%
[4]
  activity change, negative = inhibition: -2.76%
[5]
  activity change, negative = inhibition: 14.8%

## C=C1C[C@@]23CCC4[C@@](C)(CCC[C@@]4(C)C(=O)OC)C2CC[C@@H]1C3 (stereo not given in full)
[1]
  activity change, negative = inhibition: 0%
[2]
  activity change, negative = inhibition: 12.9%
[3]
  activity change, negative = inhibition: 11.5%
[4]
  activity change, negative = inhibition: -2.03%
[5]
  activity change, negative = inhibition: 3.08%

## O=C(c1cc2ccccc2[nH]1)N1CCCC2(C1)NC(=O)N(Cc1ccccc1)C2=O (stereo not given)
[1]
  activity change, negative = inhibition: -4.73%
[2]
  activity change, negative = inhibition: -8.17%
[3]
  activity change, negative = inhibition: -3.75%
[4]
  activity change, negative = inhibition: -9.18%
[5]
  activity change, negative = inhibition: -5.19%

## O=C(C[C@@H]1C[C@H]2O[C@H](CNC3CCC(F)(F)CC3)[C@@H](O)[C@H]2O1)N1CCC(F)(F)C1
[1]
  activity change, negative = inhibition: -5.58%
[2]
  activity change, negative = inhibition: -8.45%
[3]
  activity change, negative = inhibition: -2.46%
[4]
  activity change, negative = inhibition: -9.51%
[5]
  activity change, negative = inhibition: -6.71%

## O=C(O)Cc1c[nH]c2ccc(O)cc12
[1]
  activity change, negative = inhibition: -19.1%
[2]
  activity change, negative = inhibition: 2.92%
[3]
  activity change, negative = inhibition: -0.368%
[4]
  activity change, negative = inhibition: -4.48%
[5]
  activity change, negative = inhibition: 2.71%

## CC1(C(=O)NC2CCCC2)Cn2cnc(C(=O)NCCc3ccco3)c2C(=O)N1C1CC1 (stereo not given)
[1]
  activity change, negative = inhibition: 3.85%
[2]
  activity change, negative = inhibition: 1.95%
[3]
  activity change, negative = inhibition: 5.36%
[4]
  activity change, negative = inhibition: 1.58%
[5]
  activity change, negative = inhibition: 3.78%

## CC(C)C(=O)N1CCCCCCNC(=O)[C@@H]2C[C@@H](C(=O)NCCc3c[nH]c4ccccc34)C[C@@H]21
[1]
  activity change, negative = inhibition: -2.7%
[2]
  activity change, negative = inhibition: -6.37%
[3]
  activity change, negative = inhibition: -1.74%
[4]
  activity change, negative = inhibition: -6.6%
[5]
  activity change, negative = inhibition: -3.22%

## COc1cccc(C(=O)Cn2nc3n(C)c(=O)c4ccc(C(=O)NC5CCCCC5)cc4n3c2=O)c1
[1]
  activity change, negative = inhibition: -0.299%
[2]
  activity change, negative = inhibition: 4.07%
[3]
  activity change, negative = inhibition: 2.6%
[4]
  activity change, negative = inhibition: -1.24%
[5]
  activity change, negative = inhibition: 0.331%

## CC(C)NC(=O)CSc1nnc2n(Cc3ccc(F)cc3)c(=O)c3ccccc3n12
[1]
  activity change, negative = inhibition: -0.34%
[2]
  activity change, negative = inhibition: 0%
[3]
  activity change, negative = inhibition: 7.5%
[4]
  activity change, negative = inhibition: -3.8%
[5]
  activity change, negative = inhibition: 2.18%

## CCCOc1ccc(-c2nc(OC)c3ccccc3n2)cc1
[1]
  activity change, negative = inhibition: -1.98%
[2]
  activity change, negative = inhibition: -1.3%
[3]
  activity change, negative = inhibition: 3.37%
[4]
  activity change, negative = inhibition: -13.9%
[5]
  activity change, negative = inhibition: -7.51%

## COc1cc2c(Oc3ccc(NC(=O)C4(C(=O)Nc5ccc(F)cc5)CC4)cc3F)ccnc2cc1OCCCN1CCOCC1
[1]
  activity change, negative = inhibition: -3.3%
[2]
  activity change, negative = inhibition: 16.4%
[3]
  activity change, negative = inhibition: 6.22%
[4]
  activity change, negative = inhibition: -2.23%
[5]
  activity change, negative = inhibition: 6.73%

## CC(=O)OC12CC(C)C(O)C1/C=C(/COC1OC(CO)C(O)C(O)C1O)CCC1C(/C=C(\C)C2=O)C1(C)C (stereo not given)
[1]
  activity change, negative = inhibition: 0%
[2]
  activity change, negative = inhibition: 2.91%
[3]
  activity change, negative = inhibition: 9.58%
[4]
  activity change, negative = inhibition: -7.85%
[5]
  activity change, negative = inhibition: -1.89%
